Data reported in publication PMC4646629.
Where two headings read alike, the source gives them in different places. No constants are given. Whether binding was seen depends on the method and setting. For some assays here: Binding seen in cells or lysates may run through a third protein. Some binding calls cover weakened binding; strength is not graded here. For some assays here: Sequences can lack the tags named with a protein.

Sequences of proteins named here, by UniProt entry; tags and fusion partners are left off.
UniProt Q9FFG0: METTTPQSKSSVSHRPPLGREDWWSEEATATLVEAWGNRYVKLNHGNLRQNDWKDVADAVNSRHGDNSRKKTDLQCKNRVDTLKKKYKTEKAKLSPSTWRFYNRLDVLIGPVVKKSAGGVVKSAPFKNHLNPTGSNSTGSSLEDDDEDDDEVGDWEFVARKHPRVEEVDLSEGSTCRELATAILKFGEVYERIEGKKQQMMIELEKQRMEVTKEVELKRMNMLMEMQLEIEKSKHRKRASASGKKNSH
UniProt Q39255: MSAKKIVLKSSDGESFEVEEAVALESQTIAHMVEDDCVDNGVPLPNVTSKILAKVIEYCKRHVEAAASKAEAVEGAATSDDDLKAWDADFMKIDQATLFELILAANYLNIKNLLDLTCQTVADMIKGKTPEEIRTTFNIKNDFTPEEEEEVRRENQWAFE

Assays:
[1] = biological target: T1, cYFP-VirF (Agrobacterium) (UniProt P15597); test: split reporter; BiFC: nYFP and cYFP fusions coexpressed in microbombarded N. benthamiana leaves, confocal microscopy 48 h later
T1 sequence: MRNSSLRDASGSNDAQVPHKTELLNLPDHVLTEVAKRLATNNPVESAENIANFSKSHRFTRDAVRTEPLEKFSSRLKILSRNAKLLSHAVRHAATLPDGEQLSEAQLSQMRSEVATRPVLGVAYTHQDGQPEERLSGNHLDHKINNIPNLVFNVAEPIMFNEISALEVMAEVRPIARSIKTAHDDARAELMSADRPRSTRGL

[2] = biological target: LexA-VirFdel1 (Agrobacterium) (UniProt P15597); test: two-hybrid; LexA baits and Gal4AD preys in S. cerevisiae TAT7 (L40-ura3); 2 days at 30°C on medium without leucine, tryptophan and histidine with 6 mM 3-AT; histidine prototrophy
[3] = biological target: LexA-VirFdel1 (Agrobacterium) (UniProt P15597); test: as above; remark: listed apart in the source
[4] = biological target: T2, cYFP-VBF (Arabidopsis) (UniProt Q9C7K0); test: split reporter; BiFC: nYFP and cYFP fusions coexpressed in microbombarded N. benthamiana leaves, confocal microscopy 48 h later
T2 sequence: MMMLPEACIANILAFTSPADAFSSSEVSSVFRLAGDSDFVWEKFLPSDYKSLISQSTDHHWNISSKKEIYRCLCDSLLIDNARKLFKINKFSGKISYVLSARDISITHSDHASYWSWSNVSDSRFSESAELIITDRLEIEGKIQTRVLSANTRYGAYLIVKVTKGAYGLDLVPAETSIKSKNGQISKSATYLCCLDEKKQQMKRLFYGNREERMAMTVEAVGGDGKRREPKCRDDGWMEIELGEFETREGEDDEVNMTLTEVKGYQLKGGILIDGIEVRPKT

[5] = biological target: T1, cYFP-VirF (Agrobacterium); test: as above; remark: listed apart in the source

**Q.** With nYFP-VFP5 (from UniProt Q9FFG0 1-248) as the molecule, how does the binding [1] read?
**A.** binds

**Q.** For “Arabidopsis ASK1 (from UniProt Q39255 1-160)”, which binding [2] is on record?
**A.** binds

B1: Gal4AD-VFP3 (protein, UniProt Q8VZI9 1-249)
chain: METTPETQSKTHRLPAGREDWWSEDATATLIEAWGDRYVNLNRGNLRQNDWKEVADAVNSSHGNGRPKTDVQCKNRIDTLKKKYKTEKAKPLSNWCFFDRLDFLIGPVMKKSSGAVVKSALMNPNLNPTGSKSTGSSLDDDDDDDDDDEEDDDDAGDWGFVVRKHRKVEDVDSSEGSAFRELARSILKLGEAFERIEGKKQQMMIELEKQRMEVAKELELQRMNMLMEMQLELEKSKLGKRRAASGKKL
**Q.** With B1 as the molecule, how does the binding [3] read?
**A.** binds

B2: nYFP-VFP3 (protein, UniProt Q8VZI9 1-249)
chain: B1 chain
**Q.** What does the source list for B2?
**A.** binding [4]: no binding; binding [5]: binds
